The test system of test [1] is HSkMC (human skeletal muscle cells). Put plainly: cytotoxicity call (relative viability < 0.9). To be noted: 10 µM.
Test [2] has as its system HepG2. Put plainly: cytotoxicity call (relative viability < 0.9). Particulars: 10 µM.
In test [3] the test system is S. aureus RN4220. Nature of the test: growth inhibition call (relative growth <= 0.2). To be noted: 50 µM.

The structures appear in SMILES notation. The list shows a part of the results.

Consider `COCCOC(=O)N1C(=O)[C@@]2(c3ccccc31)[C@H](C(=O)Nc1nc3ccccc3s1)[C@H]1C(=O)O[C@H](c3ccccc3)[C@H](c3ccccc3)N1[C@@H]2c1ccccc1OCCO`, for which the cytotoxicity call in test [1] and in test [2] was “inactive” throughout. In addition, the growth inhibition call in test [3] is “inactive”.
As to `C[C@@H]1CCCCO[C@@H](CN(C)Cc2ccncc2)[C@@H](C)CN([C@H](C)CO)C(=O)c2cc(NC(=O)Nc3ccc4c(c3)OCO4)ccc2O1`, the cytotoxicity call in test [1] and in test [2] was “inactive” throughout. The growth inhibition call in test [3] is “inactive”.
As to `C[C@@H]1CCCCO[C@H](CN(C)C(=O)C2CCCCC2)[C@@H](C)CN([C@H](C)CO)C(=O)c2cc(NC(=O)Cc3ccccc3)ccc2O1`, the cytotoxicity call in test [1] and in test [2] was “inactive” each time. In test [3], the growth inhibition call is “inactive”.
In the case of `NC(=O)N1c2ccccc2CC(=O)c2ccccc21`, the cytotoxicity call in test [1] and in test [2] was “inactive” each time. Further, in test [3], the growth inhibition call is “inactive”.
For `COCC(=O)Nc1ccc2c(c1)C(=O)N(C)C[C@H](OC)[C@@H](C)CN(Cc1cccc(F)c1)[C@H](C)CO2`, the cytotoxicity call in test [1] and in test [2] was “inactive” throughout. Besides, the growth inhibition call in test [3] was “inactive”.
As for `C[C@@H]1CN([C@H](C)CO)C(=O)c2cc(NC(=O)Cc3ccccc3)ccc2O[C@@H]1CN(C)Cc1ccc(C(=O)Nc2ccccc2N)cc1`, the cytotoxicity call in test [1] and in test [2] was “inactive” throughout. In addition, the growth inhibition call in test [3] is “inactive”.
On to `CNC[C@@H]1OCCCC[C@H](C)Oc2ccc(NS(=O)(=O)c3cn(C)cn3)cc2C(=O)N([C@@H](C)CO)C[C@@H]1C`, for which the cytotoxicity call in test [1] and in test [2] was “inactive” in each case. Also, in test [3], the growth inhibition call was “inactive”.
With `CC(C)NC(=O)Nc1ccc2c(c1)C(=O)N([C@H](C)CO)C[C@@H](C)[C@@H](CN(C)C(=O)Nc1ccccc1)OCCCC[C@@H](C)O2`, the cytotoxicity call in test [1] and in test [2] was “inactive” in each case. For the same compound, the growth inhibition call in test [3] was “inactive”.
For the compound `Cc1ccc(S(=O)(=O)Nc2ccc3c(c2)CC(=O)N([C@@H](C)CO)C[C@@H](C)[C@@H](CN(C)C(=O)Nc2cccc4ccccc24)O3)cc1`, the cytotoxicity call in test [1] and in test [2] was “inactive” each time. Also, the growth inhibition call in test [3] is “inactive”.
For `COCCOC(=O)N1C(=O)[C@@]2(c3ccccc31)[C@H](c1ccc(O)cc1)N1[C@H](c3ccccc3)[C@H](c3ccccc3)OC(=O)[C@H]1[C@@H]2C(=O)N1CCc2cc(OC)c(OC)cc2C1`, the cytotoxicity call in test [1] and in test [2] was “inactive” each time. Besides, in test [3], the growth inhibition call is “inactive”.
In the case of `C[C@H](CO)N1C[C@H](C)[C@@H](CN(C)S(=O)(=O)c2ccc(Cl)cc2)Oc2ccc(NS(C)(=O)=O)cc2CC1=O`, the cytotoxicity call in test [1] and in test [2] was “inactive” each time. Moreover, the growth inhibition call in test [3] is “inactive”.
As to `C[C@H](CO)N1C[C@H](C)[C@H](CN(C)Cc2ccc(C(=O)Nc3ccccc3N)cc2)Oc2ccc(NC(=O)Nc3cccc4ccccc34)cc2C1=O`, the cytotoxicity call in test [1] is “inactive”. Also, the cytotoxicity call in test [2] was “active”. Further, the growth inhibition call in test [3] is “inactive”.
Turning to `O=C(Nc1ccc([N+](=O)[O-])cc1Cl)c1cc(Cl)ccc1O`, the cytotoxicity call in test [1] and in test [2] was “active” in each case. Moreover, in test [3], the growth inhibition call was “inactive”.
With `Cc1noc(C)c1NC(=O)N(C)C[C@@H]1OCCCC[C@H](C)Oc2ccc(NC(=O)Nc3ccc(C(F)(F)F)cc3)cc2C(=O)N([C@@H](C)CO)C[C@H]1C`, the cytotoxicity call in test [1] and in test [2] was “inactive” in each case. For the same compound, in test [3], the growth inhibition call is “inactive”.
Consider `C[C@@H]1CCCCO[C@@H](CN(C)S(=O)(=O)c2cccs2)[C@H](C)CN([C@H](C)CO)C(=O)c2cc(NC(=O)Nc3ccc(C(F)(F)F)cc3)ccc2O1`, for which the cytotoxicity call in test [1] and in test [2] was “inactive” in each case. In addition, the growth inhibition call in test [3] is “inactive”.
For `Cc1cc(-c2ccccc2)nc(SCc2ccccc2)c1C#N`, the cytotoxicity call in test [1] is “inactive”. The cytotoxicity call in test [2] is “active”. Besides, the growth inhibition call in test [3] was “inactive”.
For the compound `C[C@H](CO)N1C[C@H](C)[C@@H](CN(C)Cc2ccncc2)Oc2ccc(NC(=O)Nc3cccc4ccccc34)cc2C1=O`, the cytotoxicity call in test [1] and in test [2] was “inactive” each time. Besides, the growth inhibition call in test [3] is “inactive”.
Take `C[C@H]1CCCCO[C@@H](CN(C)C(=O)Nc2ccc3c(c2)OCO3)[C@@H](C)CN([C@@H](C)CO)C(=O)c2cc(NS(=O)(=O)c3ccccc3)ccc2O1`: the cytotoxicity call in test [1] and in test [2] was “inactive” throughout. In test [3], the growth inhibition call was “inactive”.
As for `C[C@@H]1O[C@@H](O[C@@H]2[C@@H](O)[C@@H](O[C@@H]3O[C@@H](CO)[C@H](O)[C@H]3O)[C@H](OC(=O)[C@]34CCC(C)(C)C[C@H]3C3=CC[C@H]5[C@@]6(C)C[C@H](O)[C@H](O[C@@H]7O[C@@H](C)[C@H](O)[C@@H](O[C@@H]8OC[C@@H](O)[C@H](O)[C@H]8O[C@@H]8O[C@H](CO)[C@@H](O)[C@H](O)[C@H]8O)[C@H]7O)[C@@](C)(CO)[C@@H]6CC[C@@]5(C)[C@]3(C)C[C@H]4O)O[C@H]2C)[C@H](O)[C@H](O)[C@H]1O`, the cytotoxicity call in test [1] is “inactive”. Besides, the cytotoxicity call in test [2] is “active”. Further, in test [3], the growth inhibition call is “inactive”.
On to `C[C@@H]1CN([C@@H](C)CO)C(=O)c2cc(NC(=O)C3CCCCC3)ccc2O[C@@H](C)CCCCO[C@H]1CN(C)C(=O)c1ccccc1`, for which the cytotoxicity call in test [1] and in test [2] was “inactive” throughout. For the same compound, the growth inhibition call in test [3] was “inactive”.
Take `C[C@H]1CN([C@@H](C)CO)C(=O)Cc2cc(NC(=O)CCCN(C)C)ccc2O[C@@H]1CN(C)S(=O)(=O)c1cccs1`: the cytotoxicity call in test [1] and in test [2] was “inactive” each time. Further, the growth inhibition call in test [3] was “inactive”.
In the case of `C[C@H](CO)N1C[C@H](C)[C@H](CN(C)C(=O)c2ccncc2)Oc2cc(-c3cccc(C#N)c3)ccc2S1(=O)=O`, the cytotoxicity call in test [1] and in test [2] was “inactive” throughout. Besides, the growth inhibition call in test [3] was “inactive”.
On to `C[C@@H]1CN([C@@H](C)CO)C(=O)c2cc(C#CC3(O)CCCC3)cnc2O[C@@H]1CN(C)S(=O)(=O)c1ccc(F)cc1`, for which the cytotoxicity call in test [1] and in test [2] was “inactive” in each case. In addition, the growth inhibition call in test [3] was “inactive”.
With `C[C@@H]1CN([C@H](C)CO)S(=O)(=O)c2ccc(Br)cc2O[C@H]1CN(C)S(=O)(=O)c1ccccc1`, the cytotoxicity call in test [1] and in test [2] was “inactive” in each case. The growth inhibition call in test [3] is “inactive”.
Consider `C[C@@H]1CN([C@@H](C)CO)C(=O)c2cc(NC(=O)Nc3ccccc3)ccc2O[C@@H](C)CCCCO[C@H]1CN(C)Cc1ccc(Cl)c(Cl)c1`, for which the cytotoxicity call in test [1] and in test [2] was “inactive” throughout. In test [3], the growth inhibition call is “inactive”.
In the case of `Cc1noc(C)c1S(=O)(=O)N(C)C[C@@H]1Oc2c(NS(C)(=O)=O)cccc2C(=O)N([C@@H](C)CO)C[C@H]1C`, the cytotoxicity call in test [1] and in test [2] was “inactive” throughout. In test [3], the growth inhibition call was “inactive”.

The values are drawn from the antibiotic and cytotoxicity screens of Wong et al. (2023).
